# Source: paper PMC4752459
# Amino acid sequences for entries named in this document (tags omitted).
# UniProt P38634: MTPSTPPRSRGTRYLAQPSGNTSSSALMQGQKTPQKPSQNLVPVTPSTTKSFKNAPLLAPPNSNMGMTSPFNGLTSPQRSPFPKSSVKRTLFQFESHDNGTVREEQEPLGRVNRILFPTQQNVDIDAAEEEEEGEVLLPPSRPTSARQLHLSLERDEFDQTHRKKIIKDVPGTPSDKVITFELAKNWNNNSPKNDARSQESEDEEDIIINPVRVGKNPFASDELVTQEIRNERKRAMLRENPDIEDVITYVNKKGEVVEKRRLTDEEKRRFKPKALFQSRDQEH
# UniProt P32598: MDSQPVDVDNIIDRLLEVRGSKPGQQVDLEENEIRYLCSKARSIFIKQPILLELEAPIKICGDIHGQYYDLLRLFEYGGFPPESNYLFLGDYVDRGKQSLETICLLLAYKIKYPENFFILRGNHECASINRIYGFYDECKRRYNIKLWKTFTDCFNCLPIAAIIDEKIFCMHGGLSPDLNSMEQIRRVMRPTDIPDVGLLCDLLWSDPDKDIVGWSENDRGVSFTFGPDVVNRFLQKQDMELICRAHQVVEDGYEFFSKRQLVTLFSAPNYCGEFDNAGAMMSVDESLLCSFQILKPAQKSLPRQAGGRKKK
# UniProt Q08972: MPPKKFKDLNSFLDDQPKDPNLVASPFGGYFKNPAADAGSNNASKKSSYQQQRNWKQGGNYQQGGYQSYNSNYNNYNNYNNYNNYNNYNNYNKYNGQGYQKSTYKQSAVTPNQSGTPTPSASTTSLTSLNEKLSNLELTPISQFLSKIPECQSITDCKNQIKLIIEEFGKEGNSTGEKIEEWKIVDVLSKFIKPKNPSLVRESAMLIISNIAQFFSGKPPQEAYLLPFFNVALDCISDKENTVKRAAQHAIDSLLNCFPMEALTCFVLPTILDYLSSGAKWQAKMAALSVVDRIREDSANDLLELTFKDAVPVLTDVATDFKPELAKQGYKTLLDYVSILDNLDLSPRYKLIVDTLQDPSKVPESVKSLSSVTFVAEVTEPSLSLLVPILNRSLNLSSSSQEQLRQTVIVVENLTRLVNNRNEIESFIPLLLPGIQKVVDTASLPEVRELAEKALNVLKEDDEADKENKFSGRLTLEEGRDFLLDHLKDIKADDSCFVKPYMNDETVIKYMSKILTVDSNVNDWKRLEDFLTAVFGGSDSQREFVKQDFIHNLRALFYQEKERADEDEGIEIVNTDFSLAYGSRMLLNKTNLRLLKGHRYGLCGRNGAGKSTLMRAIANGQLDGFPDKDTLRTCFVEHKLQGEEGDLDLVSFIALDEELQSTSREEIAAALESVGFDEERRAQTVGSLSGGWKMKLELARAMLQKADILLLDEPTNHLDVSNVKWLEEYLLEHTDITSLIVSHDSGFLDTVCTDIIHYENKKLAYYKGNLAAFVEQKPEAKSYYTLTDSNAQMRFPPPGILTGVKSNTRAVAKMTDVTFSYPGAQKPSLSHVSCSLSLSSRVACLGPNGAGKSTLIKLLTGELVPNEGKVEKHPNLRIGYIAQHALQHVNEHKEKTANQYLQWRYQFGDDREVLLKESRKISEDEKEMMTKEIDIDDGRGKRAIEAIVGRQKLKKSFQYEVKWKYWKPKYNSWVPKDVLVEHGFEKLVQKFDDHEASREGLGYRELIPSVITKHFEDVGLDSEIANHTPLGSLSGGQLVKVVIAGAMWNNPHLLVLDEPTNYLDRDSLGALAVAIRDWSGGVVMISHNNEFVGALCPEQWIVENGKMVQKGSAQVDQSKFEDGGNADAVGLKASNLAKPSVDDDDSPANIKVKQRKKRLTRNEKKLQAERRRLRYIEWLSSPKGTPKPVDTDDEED
# Results are given in words; binding and its absence hold for the method and conditions named. In cells and extracts the contact can be indirect. Some entries that bind do so weakly or less than the wild type.
# B1: Nub-Bni5 (protein, UniProt P53890 1-448)
# chain: MGLDQDKIKKRLSQIEIDINQMNQMIDENLQLVEPAEDEAVEDNVKDTGVVDAVKVAETALFSGNDGADSNPGDSAQVEEHKTAQVHIPTENEANKSTDDPSQLSVTQPFIAKEQITHTAIAIGDSYNSFVANSAGNEKAKDSCTENKEDGTVNIDQNRGEADVEIIENNDDEWEDEKSDVEEGRVDKGTEENSEIESFKSPMPQNNTLGGENKLDAELVLDKFSSANKDLDIQPQTIVVGGDNEYNHESSRLADQTPHDDNSENCPNRSGGSTPLDSQTKIFIPKKNSKEDGTNINHFNSDGDGQKKMANFETRRPTNPFRVISVSSNSNSRNGSRKSSLNKYDSPVSSPITSASELGSIAKLEKRHDYLSMKCIKLQKEIDYLNKMNAQGSLSMEDGKRLHRAVVKLQEYLDKKTKEKYEVGVLLSRHLRKQIDRGENGQFWIGTK
# B2: Nub-Cse1 (protein, UniProt P33307 1-960)
# chain: MSDLETVAKFLAESVIASTAKTSERNLRQLETQDGFGLTLLHVIASTNLPLSTRLAGALFFKNFIKRKWVDENGNHLLPANNVELIKKEIVPLMISLPNNLQVQIGEAISSIADSDFPDRWPTLLSDLASRLSNDDMVTNKGVLTVAHSIFKRWRPLFRSDELFLEIKLVLDVFTAPFLNLLKTVDEQITANENNKASLNILFDVLLVLIKLYYDFNCQDIPEFFEDNIQVGMGIFHKYLSYSNPLLEDPDETEHASVLIKVKSSIQELVQLYTTRYEDVFGPMINEFIQITWNLLTSISNQPKYDILVSKSLSFLTAVTRIPKYFEIFNNESAMNNITEQIILPNVTLREEDVELFEDDPIEYIRRDLEGSDTDTRRRACTDFLKELKEKNEVLVTNIFLAHMKGFVDQYMSDPSKNWKFKDLYIYLFTALAINGNITNAGVSSTNNLLNVVDFFTKEIAPDLTSNNIPHIILRVDAIKYIYTFRNQLTKAQLIELMPILATFLQTDEYVVYTYAAITIEKILTIRESNTSPAFIFHKEDISNSTEILLKNLIALILKHGSSPEKLAENEFLMRSIFRVLQTSEDSIQPLFPQLLAQFIEIVTIMAKNPSNPRFTHYTFESIGAILNYTQRQNLPLLVDSMMPTFLTVFSEDIQEFIPYVFQIIAFVVEQSATIPESIKPLAQPLLAPNVWELKGNIPAVTRLLKSFIKTDSSIFPDLVPVLGIFQRLIASKAYEVHGFDLLEHIMLLIDMNRLRPYIKQIAVLLLQRLQNSKTERYVKKLTVFFGLISNKLGSDFLIHFIDEVQDGLFQQIWGNFIITTLPTIGNLLDRKIALIGVLNMVINGQFFQSKYPTLISSTMNSIIETASSQSIANLKNDYVDLDNLEEISTFGSHFSKLVSISEKPFDPLPEIDVNNGVRLYVAEALNKYNAISGNTFLNTILPQLTQENQVKLNQLLVGN
# B3: Nub-Nop4 (protein, UniProt P37838 1-685)
# chain: MEETIENVEVPSSNVSKQNDDGLDMKTLFVRSIPQDVTDEQLADFFSNFAPIKHAVVVKDTNKRSRGFGFVSFAVEDDTKEALAKARKTKFNGHILRVDIAKRRDRSKKTSEVVEKSTPESSEKITGQNNEDEDDADGEDSMLKGKPKLIIRNMPWSCRDPVKLKKIFGRYGTVVEATIPRKRDGKLCGFAFVTMKKISNCRIALENTKDLKIDGRKVAVDFAVQKNRWEDYKKAQPEMNDKDDNESGNEDAEENHDDEEDENEEEDRQVDQASKNKESKRKAQNKREDFSVFVRNVPYDATEESLAPHFSKFGSVKYALPVIDKSTGLAKGTAFVAFKDQYTYNECIKNAPAAGSTSLLIGDDVMPEYVYEGRVLSITPTLVREDAGRMAEKNAAKRKEALGKAPGEKDRRNLYLLNEGRVVEGSKMADLLTNTDMEIREKSYKLRVEQLKKNPSLHLSMTRLAIRNLPRAMNDKALKALARKAVVEFATEVKNKERHPLSKEEIIRSTKEKYKFMGPDEIEAQKKKDKKSGVVKQAKVIMEVKGSTAGRSRGYGFVEFRDHKNALMGLRWLNCHAVTSDEILEGLNDDEKKQVDNDLGKGRRLCVEFAIENSNVVKRRREQLKQARTKRTRPDNEDTGDVGESENKKPKKEEATTPTNPDDKKMGDDIKRIIGFKRKRKHAKK
# B4: Nub-Rlp7 (protein, UniProt P40693 1-322)
# chain: MSSTQDSKAQTLNSNPEILLRKRRNADRTRIERQELAKKKREEQIKKKRSNKNKFVRAESIVAKTLATSREKERIKRVSILEDKKAKNETQHIASGKDFILKITEKANGAEENSVDLEETEEEEDDGLIREKTTYDGKPALLFIVRVRGPLAVNIPNKAFKILSLLRLVETNTGVFVKLTKNVYPLLKVIAPYVVIGKPSLSSIRSLIQKRGRIIYKGENEAEPHEIVLNDNNIVEEQLGDHGIICVEDIIHEIATMGESFSVCNFFLQPFKLNREVSGFGSLNRLRKIKQREAESRTRQFSNAATAPVIEVDIDSLLAKLN
# B5: Nub-Sfb3 (protein, UniProt P38810 1-929)
# chain: MSQQNILAASVSALSLDESTVHTGGASSKKSRRPHRAYHNFSSGTVPTLGNSPYTTPQLNQQDGFQQPQAFTPKQFGGFNNGSGSVMSTPVMVSQERFGASEASSPYGQSMLDMTAPQPTSHIVPTQRFEDQAQYLQRSFETCRDSVPPLPTTQFYCVDQGSCDPHLMSLSMYNIPESEHLRAATKLPLGLTIQPFSTLTPNDAEVPTIPLPMDGTPLRCRRCRAYANPKFQFTYDSSVICNICRVKMQVPGEHFAPMGPNGQRSDLNEKSELLHGTVDFLVPSIYNAIQEKELLPLHYVFLIDVSLLANENGSSLAMVEGVRSCIEYISDFQPNCEVAIIVYDNKLRFFNLRPDLDNAQEYIVSELDDVFLPFYNGLFVKPGNSMKIINDTLIKISGYISTDKYSHVPQVCYGSALQAAKLALDTVTGGQGGKIICSLNSLPTIGNGNLSLKRDNAHIAHVKCDNGFYKKLASDFLKSYISLDLYVTNAGFIDMATVGHPVEMTSGILKYYPHFQQETDAFTLVNDMVTNVSNIVGYQALLKVRCSTGLSVEQYYCDSSDNTDHDPIIPVLTRDTTLDVLLKYDSKIKTGTDVHFQTALLYTDIDGVRKVRSINTSGAVSNNIREIFKFINQNPVMRIMIKDVIKTLGDCDFVKIRRLIDDKMVEILTQYRGLVSSNSSTQLILPDSIKTLPAYMLAFEKSELMKPNAQSTRGNERIYDLLKYDSLNSAQLCYKLYPQIVPFHVLLEETDLTFYDANDKLLQINSSSINNLSVRASHSNFINGGCYLIFQGDTIYLWFNENTNRMLLQDLLSVDESLPVSQISLFSGTLPETGTSINQKASNVIKNWQQVVNKSSLPLVLLRPNVDQYYSNVMSQLLCEDKTVNRIESYDNYLVIMHKKIQEKLQKDDFIKVSTAATHENIHQKFVQF
# B6: Nub-Vps1 (protein, UniProt P21576 1-704)
# chain: MDEHLISTINKLQDALAPLGGGSQSPIDLPQITVVGSQSSGKSSVLENIVGRDFLPRGTGIVTRRPLVLQLINRRPKKSEHAKVNQTANELIDLNINDDDKKKDESGKHQNEGQSEDNKEEWGEFLHLPGKKFYNFDEIRKEIVKETDKVTGANSGISSVPINLRIYSPHVLTLTLVDLPGLTKVPVGDQPPDIERQIKDMLLKYISKPNAIILSVNAANTDLANSDGLKLAREVDPEGTRTIGVLTKVDLMDQGTDVIDILAGRVIPLRYGYIPVINRGQKDIEHKKTIREALENERKFFENHPSYSSKAHYCGTPYLAKKLNSILLHHIRQTLPEIKAKIEATLKKYQNELINLGPETMDSASSVVLSMITDFSNEYAGILDGEAKELSSQELSGGARISYVFHETFKNGVDSLDPFDQIKDSDIRTIMYNSSGSAPSLFVGTEAFEVLVKQQIRRFEEPSLRLVTLVFDELVRMLKQIISQPKYSRYPALREAISNQFIQFLKDATIPTNEFVVDIIKAEQTYINTAHPDLLKGSQAMVMVEEKLHPRQVAVDPKTGKPLPTQPSSSKAPVMEEKSGFFGGFFSTKNKKKLAALESPPPVLKATGQMTERETMETEVIKLLISSYFSIVKRTIADIIPKALMLKLIVKSKTDIQKVLLEKLYGKQDIEELTKENDITIQRRKECKKMVEILRNASQIVSSV
# Target: T1, Shs1-CCG (S. cerevisiae) (UniProt Q07657)
# T1 sequence: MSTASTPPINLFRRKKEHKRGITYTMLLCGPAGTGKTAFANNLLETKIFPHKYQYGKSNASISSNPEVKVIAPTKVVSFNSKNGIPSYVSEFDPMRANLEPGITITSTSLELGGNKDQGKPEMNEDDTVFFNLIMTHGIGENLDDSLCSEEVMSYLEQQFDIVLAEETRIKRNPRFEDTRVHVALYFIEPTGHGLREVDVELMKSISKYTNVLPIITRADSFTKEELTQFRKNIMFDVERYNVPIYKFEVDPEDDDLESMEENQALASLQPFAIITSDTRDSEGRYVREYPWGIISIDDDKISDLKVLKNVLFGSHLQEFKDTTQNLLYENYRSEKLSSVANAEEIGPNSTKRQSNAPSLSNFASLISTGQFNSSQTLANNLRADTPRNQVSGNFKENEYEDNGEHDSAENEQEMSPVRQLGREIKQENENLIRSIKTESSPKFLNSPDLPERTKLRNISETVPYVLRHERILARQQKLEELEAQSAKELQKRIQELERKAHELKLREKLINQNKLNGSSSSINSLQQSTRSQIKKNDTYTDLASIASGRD
# Experiment: split reporter; steady-state SPLIFF (split-ubiquitin, mCherry-Cub-GFP): diploid cells with Shs1-CCG and a Nub fusion, 100 μM Cu2+, GFP/mCherry ratio at the bud neck; strong > 70%, weak > 30%, below 30% CCG to CC conversion non-interacting
row,Molecule,binding
1,Nub-Sic1 (from UniProt P38634 1-284),no binding
2,Nub-Glc7 (from UniProt P32598 1-312),no binding
3,Nub-New1 (from UniProt Q08972 1-1196),binds
4,B1,binds
5,B2,binds
6,B3,binds weakly
7,B4,binds weakly
8,B5,binds weakly
9,B6,binds weakly
